Reference: article PMC3438190
No constants are given. Whether binding was seen depends on the method and setting. Binding seen in cells or lysates may run through a third protein. Some entries that bind do so weakly or less than the wild type.

Sequences of proteins named here, by UniProt entry; tags and fusion partners are left off. A change or cut given only in a name is not applied to a line headed by its entry.
UniProt P60953: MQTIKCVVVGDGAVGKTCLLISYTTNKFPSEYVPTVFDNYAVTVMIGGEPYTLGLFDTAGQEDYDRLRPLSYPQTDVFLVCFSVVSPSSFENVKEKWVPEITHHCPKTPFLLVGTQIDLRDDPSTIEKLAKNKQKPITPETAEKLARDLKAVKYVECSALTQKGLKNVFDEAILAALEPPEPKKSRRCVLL
UniProt Q13153: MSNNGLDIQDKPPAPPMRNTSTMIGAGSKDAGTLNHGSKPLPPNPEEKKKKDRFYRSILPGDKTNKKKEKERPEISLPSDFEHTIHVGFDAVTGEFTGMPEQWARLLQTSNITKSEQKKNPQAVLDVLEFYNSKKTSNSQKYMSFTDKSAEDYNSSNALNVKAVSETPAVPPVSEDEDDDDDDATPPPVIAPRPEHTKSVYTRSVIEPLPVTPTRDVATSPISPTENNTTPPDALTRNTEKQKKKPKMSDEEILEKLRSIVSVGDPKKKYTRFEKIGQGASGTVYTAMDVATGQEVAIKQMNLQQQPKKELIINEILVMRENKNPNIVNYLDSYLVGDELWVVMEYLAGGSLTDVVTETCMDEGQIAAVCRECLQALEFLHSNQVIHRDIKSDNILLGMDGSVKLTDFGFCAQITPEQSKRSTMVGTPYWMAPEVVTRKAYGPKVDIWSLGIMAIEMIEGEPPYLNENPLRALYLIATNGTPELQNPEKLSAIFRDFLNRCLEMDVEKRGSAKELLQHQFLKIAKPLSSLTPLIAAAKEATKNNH
UniProt O00401: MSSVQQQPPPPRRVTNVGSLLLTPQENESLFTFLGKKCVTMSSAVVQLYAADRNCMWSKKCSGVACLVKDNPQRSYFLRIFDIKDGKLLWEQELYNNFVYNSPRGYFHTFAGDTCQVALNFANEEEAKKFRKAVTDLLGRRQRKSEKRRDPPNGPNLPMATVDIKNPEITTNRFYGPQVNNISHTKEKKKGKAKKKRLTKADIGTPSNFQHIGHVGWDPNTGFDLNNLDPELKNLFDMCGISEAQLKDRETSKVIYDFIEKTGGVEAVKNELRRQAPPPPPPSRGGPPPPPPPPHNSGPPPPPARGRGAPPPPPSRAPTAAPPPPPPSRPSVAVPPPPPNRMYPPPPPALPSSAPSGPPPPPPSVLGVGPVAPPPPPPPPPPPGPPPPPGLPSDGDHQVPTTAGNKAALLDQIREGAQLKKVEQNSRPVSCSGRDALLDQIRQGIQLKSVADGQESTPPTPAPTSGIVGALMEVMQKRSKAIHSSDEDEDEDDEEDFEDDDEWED
UniProt Q5VT25: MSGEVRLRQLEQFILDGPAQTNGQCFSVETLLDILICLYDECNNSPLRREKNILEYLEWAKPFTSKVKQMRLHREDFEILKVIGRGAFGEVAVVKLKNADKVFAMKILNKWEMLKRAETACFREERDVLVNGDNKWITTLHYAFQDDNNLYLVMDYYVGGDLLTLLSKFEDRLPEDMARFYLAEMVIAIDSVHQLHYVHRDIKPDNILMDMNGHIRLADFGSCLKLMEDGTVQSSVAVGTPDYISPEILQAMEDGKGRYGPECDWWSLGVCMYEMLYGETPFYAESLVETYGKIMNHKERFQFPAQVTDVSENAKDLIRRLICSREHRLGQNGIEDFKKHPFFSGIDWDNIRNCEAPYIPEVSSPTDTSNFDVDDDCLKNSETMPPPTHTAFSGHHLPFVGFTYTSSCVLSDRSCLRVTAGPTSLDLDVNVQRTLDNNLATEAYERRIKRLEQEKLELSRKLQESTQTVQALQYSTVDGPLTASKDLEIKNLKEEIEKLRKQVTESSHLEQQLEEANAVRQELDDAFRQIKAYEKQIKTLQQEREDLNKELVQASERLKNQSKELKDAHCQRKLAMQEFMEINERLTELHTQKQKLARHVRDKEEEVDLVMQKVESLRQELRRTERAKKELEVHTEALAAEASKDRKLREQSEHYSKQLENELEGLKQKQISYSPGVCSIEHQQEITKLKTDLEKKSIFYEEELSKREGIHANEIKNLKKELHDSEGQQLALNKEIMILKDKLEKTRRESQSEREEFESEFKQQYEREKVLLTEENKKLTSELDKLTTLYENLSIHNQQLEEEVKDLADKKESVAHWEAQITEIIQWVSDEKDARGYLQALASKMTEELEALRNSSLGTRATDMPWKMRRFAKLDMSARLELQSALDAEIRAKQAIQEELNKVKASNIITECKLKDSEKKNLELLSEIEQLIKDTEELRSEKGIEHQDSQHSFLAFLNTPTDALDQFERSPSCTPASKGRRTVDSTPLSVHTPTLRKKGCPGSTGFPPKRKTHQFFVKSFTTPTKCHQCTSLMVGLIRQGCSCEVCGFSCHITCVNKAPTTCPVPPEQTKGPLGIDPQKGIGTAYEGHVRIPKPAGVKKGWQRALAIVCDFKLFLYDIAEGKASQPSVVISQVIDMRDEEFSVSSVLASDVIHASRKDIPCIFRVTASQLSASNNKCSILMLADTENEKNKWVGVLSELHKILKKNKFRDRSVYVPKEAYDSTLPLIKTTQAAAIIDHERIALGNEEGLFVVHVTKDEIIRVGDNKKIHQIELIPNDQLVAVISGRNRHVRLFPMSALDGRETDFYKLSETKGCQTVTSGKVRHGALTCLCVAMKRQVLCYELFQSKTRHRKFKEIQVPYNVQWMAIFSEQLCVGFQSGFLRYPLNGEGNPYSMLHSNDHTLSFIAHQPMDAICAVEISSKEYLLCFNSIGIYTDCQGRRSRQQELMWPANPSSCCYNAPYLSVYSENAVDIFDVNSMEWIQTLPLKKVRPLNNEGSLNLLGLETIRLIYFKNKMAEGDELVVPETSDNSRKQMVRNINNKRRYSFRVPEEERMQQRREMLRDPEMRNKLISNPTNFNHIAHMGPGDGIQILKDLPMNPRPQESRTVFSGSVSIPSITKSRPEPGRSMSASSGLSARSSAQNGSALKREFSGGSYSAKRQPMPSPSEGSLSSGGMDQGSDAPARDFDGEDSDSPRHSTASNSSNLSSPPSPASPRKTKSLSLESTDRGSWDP
UniProt Q7L576: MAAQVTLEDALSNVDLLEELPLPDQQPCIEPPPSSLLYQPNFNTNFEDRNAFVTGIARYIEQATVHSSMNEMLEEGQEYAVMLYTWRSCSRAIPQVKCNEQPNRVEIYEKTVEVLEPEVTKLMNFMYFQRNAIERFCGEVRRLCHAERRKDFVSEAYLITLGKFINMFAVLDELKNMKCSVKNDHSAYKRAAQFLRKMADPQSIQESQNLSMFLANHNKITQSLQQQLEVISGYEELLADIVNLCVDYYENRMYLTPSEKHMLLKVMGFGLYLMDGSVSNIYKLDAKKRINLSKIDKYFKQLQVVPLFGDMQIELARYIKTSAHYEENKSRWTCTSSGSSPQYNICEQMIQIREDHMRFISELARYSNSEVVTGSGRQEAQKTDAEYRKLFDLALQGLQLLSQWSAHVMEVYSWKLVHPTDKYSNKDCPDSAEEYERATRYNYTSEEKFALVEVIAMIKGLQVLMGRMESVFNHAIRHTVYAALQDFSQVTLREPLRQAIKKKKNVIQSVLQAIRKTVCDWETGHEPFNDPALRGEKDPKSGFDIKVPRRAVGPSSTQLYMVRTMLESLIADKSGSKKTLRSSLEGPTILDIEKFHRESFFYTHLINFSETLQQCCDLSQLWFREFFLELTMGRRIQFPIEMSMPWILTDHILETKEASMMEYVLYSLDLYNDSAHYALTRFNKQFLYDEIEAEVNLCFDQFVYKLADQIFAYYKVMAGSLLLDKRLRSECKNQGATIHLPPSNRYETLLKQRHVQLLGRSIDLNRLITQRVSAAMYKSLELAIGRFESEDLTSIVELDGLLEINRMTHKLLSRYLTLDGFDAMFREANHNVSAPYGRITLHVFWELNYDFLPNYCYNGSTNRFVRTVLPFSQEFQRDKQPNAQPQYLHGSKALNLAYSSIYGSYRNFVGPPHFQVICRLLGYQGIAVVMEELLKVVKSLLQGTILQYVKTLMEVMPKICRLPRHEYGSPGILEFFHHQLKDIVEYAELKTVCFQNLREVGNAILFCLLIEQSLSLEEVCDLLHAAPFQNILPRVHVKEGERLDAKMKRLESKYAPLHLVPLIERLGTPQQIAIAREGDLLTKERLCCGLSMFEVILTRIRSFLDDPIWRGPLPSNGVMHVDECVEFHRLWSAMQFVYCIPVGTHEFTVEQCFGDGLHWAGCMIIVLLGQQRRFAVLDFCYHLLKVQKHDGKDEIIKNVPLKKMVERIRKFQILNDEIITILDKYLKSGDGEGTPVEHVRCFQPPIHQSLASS
UniProt P46940: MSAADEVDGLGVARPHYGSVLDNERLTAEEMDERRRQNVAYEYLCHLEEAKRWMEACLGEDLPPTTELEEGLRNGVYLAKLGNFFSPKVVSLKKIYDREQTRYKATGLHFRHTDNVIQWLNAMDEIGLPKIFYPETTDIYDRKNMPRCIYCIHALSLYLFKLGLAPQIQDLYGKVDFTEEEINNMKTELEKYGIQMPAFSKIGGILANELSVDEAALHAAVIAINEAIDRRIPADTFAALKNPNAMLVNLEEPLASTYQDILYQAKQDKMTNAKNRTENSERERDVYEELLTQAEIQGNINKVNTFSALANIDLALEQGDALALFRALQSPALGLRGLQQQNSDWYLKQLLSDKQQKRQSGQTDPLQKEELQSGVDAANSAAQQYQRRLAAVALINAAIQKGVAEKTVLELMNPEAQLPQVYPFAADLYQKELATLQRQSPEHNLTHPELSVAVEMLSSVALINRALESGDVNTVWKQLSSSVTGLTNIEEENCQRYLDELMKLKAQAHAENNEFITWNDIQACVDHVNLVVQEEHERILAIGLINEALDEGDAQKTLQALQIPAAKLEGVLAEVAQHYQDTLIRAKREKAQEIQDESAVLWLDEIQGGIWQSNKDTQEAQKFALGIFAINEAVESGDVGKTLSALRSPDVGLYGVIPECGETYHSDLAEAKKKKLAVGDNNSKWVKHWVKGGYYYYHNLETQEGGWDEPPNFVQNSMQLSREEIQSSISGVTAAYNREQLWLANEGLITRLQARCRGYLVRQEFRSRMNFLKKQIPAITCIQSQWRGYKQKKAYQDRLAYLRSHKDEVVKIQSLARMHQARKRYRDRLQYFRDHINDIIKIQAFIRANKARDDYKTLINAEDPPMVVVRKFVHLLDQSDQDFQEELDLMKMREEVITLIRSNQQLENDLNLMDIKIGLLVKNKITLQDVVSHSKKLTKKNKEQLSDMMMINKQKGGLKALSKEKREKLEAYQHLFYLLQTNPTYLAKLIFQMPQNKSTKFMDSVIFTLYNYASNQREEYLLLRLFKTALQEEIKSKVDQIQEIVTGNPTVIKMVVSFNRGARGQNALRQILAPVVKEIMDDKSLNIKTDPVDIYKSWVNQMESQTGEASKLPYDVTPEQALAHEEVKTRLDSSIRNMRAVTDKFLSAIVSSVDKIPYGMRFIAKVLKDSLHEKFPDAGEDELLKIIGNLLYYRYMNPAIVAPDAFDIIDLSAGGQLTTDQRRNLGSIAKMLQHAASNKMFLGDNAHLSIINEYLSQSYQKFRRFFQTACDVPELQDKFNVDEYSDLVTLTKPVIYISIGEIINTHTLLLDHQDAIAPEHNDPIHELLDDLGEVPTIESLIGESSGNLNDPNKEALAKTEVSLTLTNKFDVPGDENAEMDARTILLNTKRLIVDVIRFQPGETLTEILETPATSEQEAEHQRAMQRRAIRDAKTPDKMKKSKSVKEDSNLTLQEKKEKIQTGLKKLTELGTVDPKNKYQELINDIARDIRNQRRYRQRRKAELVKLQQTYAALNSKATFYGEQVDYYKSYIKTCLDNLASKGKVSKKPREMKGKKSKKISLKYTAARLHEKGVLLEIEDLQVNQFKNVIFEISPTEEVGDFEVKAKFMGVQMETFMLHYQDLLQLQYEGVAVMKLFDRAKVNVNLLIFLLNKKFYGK

Tests used:
Experiment in all cases: pull-down; GST-GTPase (GTP[γS]-loaded, or constitutively active Q61L) on glutathione beads as bait, app. 15 µg; HEp2 cell lysate in Fish-buffer (50 mM Tris pH 7.4, 2 mM MgCl2, 10% glycerine, 100 mM NaCl, 1% NP40, 0.5 mg/ml BSA), 4°C, 60 min; immunoblot, densitometry; only the target purified
GST-Cdc42 (wild type) = GST-Cdc42 (wild type) (UniProt P60953)
GST-Cdc42 Q61L = GST-Cdc42 Q61L (UniProt P60953)
GST-Cdc42 Q61L/S71E = GST-Cdc42 Q61L/S71E (UniProt P60953)

Substance	binding (GST-Cdc42 (wild type))	binding (GST-Cdc42 Q61L)	binding (GST-Cdc42 Q61L/S71E)
full length PAK1, endogenous (from UniProt Q13153 1-545)	binds	binds	
N-WASP, endogenous (from UniProt O00401 1-505)	binds	binds	
MRCK alpha (myotonic dystrophy related Cdc42 kinase alpha), endogenous (from UniProt Q5VT25 1-1732)	binds	binds	binds
Sra-1 (specifically Rac1-associated protein), endogenous (from UniProt Q7L576 1-1253)	no binding	no binding	
IQGAP1, endogenous (from UniProt P46940 1-1657)		binds	
